Over roughly 110,000 compounds, “z-score” has its median near -0.1; the highest 2% begin near 2. Some of the results follow. The source made the active and inactive calls.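 How the source made its calls: active means z-score in the third read window above 3 or below -3; inactive means the rest.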
Target: Metabotropic glutamate receptor 8 (Rattus norvegicus) (UniProt P70579)
Assay: mGluR8 Gi/Go-coupled signaling modulation – cell-based, rat, thallium flux, HTS, primary screen (AID 488969)
Settings: HEK293 rat mGluR8, GIRK (G protein-gated inwardly rectifying potassium channel) thallium flux, FluoZin2; at 10 µM; stronger effect = higher value; submaximal glutamate (EC20) added with thallium

Sequence of UniProt P70579 (P70579 whole entry, looked up): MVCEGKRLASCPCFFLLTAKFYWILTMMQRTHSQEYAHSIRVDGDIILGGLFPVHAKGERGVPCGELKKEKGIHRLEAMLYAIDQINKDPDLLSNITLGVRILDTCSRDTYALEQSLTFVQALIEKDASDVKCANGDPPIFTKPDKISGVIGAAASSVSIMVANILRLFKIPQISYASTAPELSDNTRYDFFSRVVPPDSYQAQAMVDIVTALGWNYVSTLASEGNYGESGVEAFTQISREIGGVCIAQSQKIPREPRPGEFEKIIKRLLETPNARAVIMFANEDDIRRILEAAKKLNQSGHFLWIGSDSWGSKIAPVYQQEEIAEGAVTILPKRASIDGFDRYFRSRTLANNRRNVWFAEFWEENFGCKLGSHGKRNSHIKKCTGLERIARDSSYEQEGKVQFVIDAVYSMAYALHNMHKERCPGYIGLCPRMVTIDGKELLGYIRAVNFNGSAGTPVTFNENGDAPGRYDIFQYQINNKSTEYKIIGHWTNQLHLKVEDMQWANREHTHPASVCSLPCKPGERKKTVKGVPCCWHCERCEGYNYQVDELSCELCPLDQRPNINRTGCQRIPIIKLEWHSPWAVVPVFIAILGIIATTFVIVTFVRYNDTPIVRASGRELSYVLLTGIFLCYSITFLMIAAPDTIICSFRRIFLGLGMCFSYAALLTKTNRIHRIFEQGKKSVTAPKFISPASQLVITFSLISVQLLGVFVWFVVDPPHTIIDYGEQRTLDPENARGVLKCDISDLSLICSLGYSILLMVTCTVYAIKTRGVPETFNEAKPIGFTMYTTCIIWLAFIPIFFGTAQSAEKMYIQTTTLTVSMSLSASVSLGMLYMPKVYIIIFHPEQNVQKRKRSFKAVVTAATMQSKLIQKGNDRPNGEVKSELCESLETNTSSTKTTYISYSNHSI

Compound | z-score
CCOC(=O)N1CCN(C(=O)c2ccc3c(c2)N(CC)CCS3)CC1 | 0.39
COc1ccc(OCCSc2nnc(C)n2-c2ccccc2)cc1 | 0.0666
CCCn1c2ccccc2c2nnc(SCc3[nH]c(=O)[nH]c3C(=O)CCCCC(=O)OCC)nc21 | -0.219
Brc1cc2[nH]cnc2c2ccccc12 | 0.225
Cc1csc(NC(=O)CCCSc2nc3ccccc3s2)n1 | -0.0589
COC(=O)NCC1(C)CC(NC(=O)OC)CC(C)(C)C1 (stereo not drawn) | 0.226
Cc1ccc(Sc2oc(/C=N/n3cnnc3)cc2Br)cc1 | 0.863
Cc1cc(NC(=O)CCC(=O)N(c2cccnc2)C(C(=O)NC2CCCC2)c2ccccc2F)no1 (stereo not drawn) | 0.385
Cc1nc2ccccc2n1CC(O)Cn1c(C(F)(F)F)nc2ccccc21 (stereo not drawn) | 0.454
N/C(=N\OC(=O)Oc1ccccc1)c1ccc(Br)cc1 | -0.0306
CCOC(=O)C1CCN(C(=O)c2ccccc2N(C)S(C)(=O)=O)CC1 | 0.472
COc1cccc(OC)c1C(=O)N1CCOCC1 | -0.00658
CCOc1ccccc1N=C1NC(=O)CS1 | -0.466
COc1ccccc1CNC(=S)NCCc1ccccc1 | -0.133
O=c1c2c([nH]c3ccccc13)CCCCCC2 | -0.0329
O=C(Nc1cccc2nsnc12)c1cccs1 | -0.327
CCOC(=O)/C(=C\c1cccnc1)C(=O)c1cc(C(C)=O)c(Nc2ccccc2)s1 | -0.624
COC(=O)C(CCSC)NC(=O)CNS(=O)(=O)c1ccc(Cl)cc1 (stereo not drawn) | -0.63
O=C(NC(=S)Nc1ccccc1N1CCCC1)c1ccccc1[N+](=O)[O-] | active: 7.29
O=C(O)c1ccc(CN(c2ccccn2)S(=O)(=O)c2ccccc2)cc1 | -0.675
N#C/C(=C\c1ccccc1C(F)(F)F)C(=O)Nc1ccccc1 | -0.135
O=C(O)CC(C(=O)O)c1cn(Cc2ccccc2)c2ccccc12 (stereo not drawn) | -0.217

Compound | z-score
CN1CCc2nc(SCc3ccc(C(C)(C)C)cc3)c(C#N)cc2C1 | -0.00419
Cc1onc(-c2ccccc2Cl)c1C(=O)Nc1cccc2nsnc12 | 1.17
Cc1nc2ncnn2c(C)c1CCC(=O)Nc1csc(N)n1 | -0.0552
Cc1cc(C(=O)Nc2sc(C)c(C)c2C#N)c(C)o1 | 1.02
Cc1sc2nc(SCC(=O)N(C)Cc3ccccc3)n(-c3ccccc3)c(=O)c2c1C | -0.0809
O=C(Nc1ccccc1Cl)N(Cc1nc2ccccc2c(=O)[nH]1)Cc1cccs1 | -0.163
Nc1cccc(-c2nc3ccccc3[nH]2)c1 | 0.485
Cc1nn(Cc2ccccc2)c(C)c1NC(=O)CSc1nc(-c2ccccc2)nc2c1cnn2-c1ccccc1 | -0.911
CCN1CCN(C(C)C(=O)Nc2c(C)n(C)n(-c3ccccc3)c2=O)CC1 (stereo not drawn) | -0.129
COc1ccc2cc(C(=O)Nc3ccc(F)cc3)sc(=O)c2c1OC | 0.534
Cn1cc(/C=C(\C#N)C(=O)Nc2ncc(Cc3cccc(Cl)c3)s2)c2ccccc21 | -2.38
CCOC(=O)c1cnc(-c2ccccc2)nc1Oc1ccc(Cl)cc1 | -0.241
O=C(NCCCN1CCCCCC1)c1ccc(CS(=O)(=O)Cc2ccccc2F)o1 | -0.0242
COc1cc(NC(=O)c2ccc(CNc3c(N4CCOCC4)c(=O)c3=O)cc2)cc(OC)c1 | 0.0157
COc1ccc(C(=O)Nc2ccc(-c3ccc(C)o3)cc2)cc1S(=O)(=O)N1CCOCC1 | 0.146
O=C(NCCc1ccc(Cl)cc1)C1CCN(S(=O)(=O)c2cccc3nonc23)CC1 | 0.395
Cc1cc2oc(=O)cc(COC(=O)Cn3cnnn3)c2cc1C(C)C | 1.41
CCO/C(C)=N/n1c2nc3ccccc3nc2c2c(=O)n(Cc3ccccc3Cl)c(C)nc21 | -0.242
CC(C)N(C(=O)CSc1nnc(CN2CCCCCC2=O)n1-c1ccccn1)C(C)C | 1.02
Cc1ccc(NC(CC(=O)c2ccccc2)c2ccc(F)cc2)cc1 (stereo not drawn) | -0.179
COc1cccc(-n2c(SCC#N)nnc2-c2cnccn2)c1 | -0.0135
Cc1ccc(-c2noc(=O)n2CC(=O)Nc2ccc(S(=O)(=O)NC3CC3)cc2)cc1 | 0.203

Compound | z-score
O=C(CC1S/C(=N/N=C/C=C/c2ccccc2)NC1=O)Nc1ccc(Cl)c(Cl)c1 (stereo not drawn) | 0.281
C=CCc1cccc2cc(C(=O)NC)c(=O)oc12 | -0.419
CCN(CC)c1ccc(/C=N/NC(=O)C(O)(c2ccccc2)c2ccccc2)o1 | -0.965
Cc1ccc(/C=C2/CCc3c([nH]c4ccccc34)C2=O)cc1 | 0.107
COCCCn1c(SCC(=O)Nc2cccc(C)n2)nnc1-c1ccco1 | -0.45
CCCn1c2c(c(O)c(C(=O)Nc3ncccc3O)c1=O)CCCC2 | -2.32
Cc1ccc(S(=O)(=O)NC(=O)Nc2cc(C)ccc2F)cc1 | -0.0823
Cc1cc(Br)ccc1NC(=O)CN1C(=O)CCC1=O | -0.263
CN(C)c1ccc(C(=O)n2nnc3ccccc32)cc1 | 0.0938
Cn1nc(-c2ccc(Cl)cc2)c2cc(C(=O)N3CCCC3)sc21 | -1.23
Cc1ccccc1CS(=O)(=O)c1nnc([C@H](CC(C)C)NC(=O)OC(C)(C)C)o1 | -0.321
CCN(CC)c1cc(C)c2ccccc2n1 | 0.00451
O=C(Nc1ccc(N2CCCC2)c(Cl)c1)c1cccc(-c2cc3ccccc3oc2=O)c1 | -0.0676
O=C(NCCN1C(=O)S/C(=C\c2ccccc2F)C1=O)C1CCN(S(=O)(=O)c2cccs2)CC1 | -0.251
COCCOC(=O)C1=C(C)NC(=O)NC1c1cccs1 (stereo not drawn) | 0.344
COc1ccccc1NC(=O)c1ccc(COc2ccccc2OC)o1 | -0.851
O=C(Nc1ccccc1C(=O)NCc1ccccc1)c1ccccc1 | -0.543
CN(CC(=O)Nc1nc2ccccc2s1)S(=O)(=O)c1ccccc1 | -0.0171
COc1cc(C2C(C#N)=C(N)OC3=C2C(=O)CCC3)ccc1OC(=O)N1CCOCC1 (stereo not drawn) | 0.00682
O=C(Nc1ccc2c(c1)OCO2)c1c(F)cccc1F | 0.0857
CCOC(=O)Nc1ccc(S(=O)(=O)Nc2nccc(C)n2)cc1 | -0.0787
N=c1c(S(=O)(=O)c2ccccc2)cc2c(=O)n3ccccc3nc2n1CCN1CCOCC1 | 1.1

Compound | z-score
CCN1CCN(Cc2ccc(OCc3ccccc3)c(OC)c2)CC1 | 0.958
Cn1cc([N+](=O)[O-])c(C(=O)Nc2cc(Oc3ccccc3)cc([N+](=O)[O-])c2)n1 | -0.26
CCSc1nnc(N(CCC(=O)O)CCC(=O)O)s1 | 0.825
Cn1cccc1C(=O)NC(=O)COC(=O)CNS(=O)(=O)c1ccc(Br)cc1 | -1.04
Nc1ccc(C(=O)c2ccc3c(c2)OCCO3)cc1N | -0.846
COc1ccc(NC(=O)c2cc(S(=O)(=O)N3CCS(=O)(=O)CC3)ccc2Cl)cc1 | 0.0761
O=C(COC(=O)c1ccc(S(=O)(=O)N2CCCC2)cc1)NCc1ccccc1 | -0.183
COc1ccc(CCNC(=O)c2cc(-c3cccs3)on2)cc1OC | -0.0843
Fc1ccccc1-c1ccc(/C=N/Nc2nc3ccccc3[nH]2)o1 | -0.161
COc1cccc(CNC(=O)C2CCCN(S(=O)(=O)c3cnc[nH]3)C2)c1 (stereo not drawn) | 0.0203
COc1ccc(Cn2c(=O)[nH]c3cc(C(=O)NCCCN4CCCCC4)ccc3c2=O)cc1 | 0.828
O=C1C(Cc2ccccc2)NC(=S)N1c1ccccc1 (stereo not drawn) | -0.257
COCCn1c(SCC(=O)Nc2ccc(C)cc2)nc2c(oc3ccccc32)c1=O | -0.163
CC(=O)c1ccc(NC(=O)CCc2c(C)nc3ncnn3c2C)cc1 | -0.144
CC1CCc2nc(NC(=O)C3CC3)sc2C1 (stereo not drawn) | 0.198
COc1ccc(N(CC(=O)N2CCc3ccccc32)S(=O)(=O)c2c(C)noc2C)cc1 | -1.01
COc1ccc(-c2noc(Cc3ccc(Cl)cc3)n2)cc1OC | -0.486
COc1ccc(S(=O)(=O)NC(CC(=O)NCc2ccc3c(c2)OCO3)c2ccco2)cc1 (stereo not drawn) | -0.513
CC(=O)Nc1ccc(S(=O)(=O)N2CCN(C3CCCCCCC3)CC2)cc1 | -0.0271
O=C(O)c1ccc(OCc2occc2C(=O)O)cc1 | -0.0351
CCCCCc1ccc(CC(=O)O)cc1 | -0.425
Cc1cccc(/C(N)=N/OC(=O)N2CCOCC2)c1 | -0.129

Compound | z-score
COc1ccc(S(=O)(=O)N(Cc2cc3cc(C)ccc3[nH]c2=O)CC2CCCO2)cc1 (stereo not drawn) | -0.169
Cc1csc(N(C(=O)c2ccc(S(=O)(=O)N(C)C)cc2)c2ccccc2)n1 | 0.4
C=CCn1c(=O)c2ccccc2n2c(SCC(=O)Nc3sc(C(=O)N(CC)CC)c(C)c3C(=O)OCC)nnc12 | -0.785
CCOc1cc(C(=O)Nc2ncccn2)cc(OCC)c1OCC | 0.196
CC(=O)c1c(C)nc2ccc(Cl)cn12 | -0.33
COc1ccc(S(=O)(=O)N2CCOCC2)cc1C(=O)Nc1nc2ccccc2s1 | -0.183
Cc1ccc(S(=O)(=O)N[C@H](C(=O)N2CCC(C(=O)NCC(=O)O)CC2)C(C)C)cc1 | 0.891
COC(=O)Cc1ccc(NC(=S)N2CCN(c3ccc(OC)cc3)CC2)cc1 | -0.0129
COc1ccc(CN2CC(C(=O)NCCN3CCN(c4ccccc4F)CC3)CC2=O)cc1 (stereo not drawn) | 0.0541
COc1cc(NC(=O)c2cccs2)cc(OC)c1 | -0.15
CCCNCC(O)Cn1c2ccccc2n2c(=O)cc(C)c(C#N)c12 (stereo not drawn) | 0.0963
COc1ccc(NC(=O)C2CCCN(S(=O)(=O)c3cccc4nonc34)C2)cc1 (stereo not drawn) | 0.00602
COc1ccc(OC)c(S(=O)(=O)n2nc(-c3ccccc3)cc2N)c1 | 0.545
CCOC(=O)N1CCN(CCC(=O)Nc2ccc(Br)cc2)CC1 | -0.291
COc1cc(OC)c(C2C(C#N)=C(N)Oc3cc(C)n(CCCN4CCOCC4)c(=O)c32)cc1OC (stereo not drawn) | -0.246
NC(=S)N/N=C/c1ccc(-c2cccc([N+](=O)[O-])c2)o1 | 0.41
CCOC(=O)c1ccc(-n2c(C)nc3c(cnn3-c3ccccc3Cl)c2=O)cc1 | -0.636
COc1ccc(-c2cc(C(=O)Nc3c(C)nn(Cc4ccc(Cl)cc4)c3C)no2)cc1 | -0.456
O=c1nc(C(F)(F)F)nc2ccccn12 | -0.00835
CCOC(=O)CNC(=O)Cn1cnc2c(nnn2-c2ccc(F)cc2)c1=O | -0.338
